Laboratory results: PubChem BioAssay AID1460 (National Center for Advancing Translational Sciences (NCATS), 2008)
The campaign covered roughly 270,000 compounds. About 5,800 (2.1%) were called active. Inconclusive results, whose numbers are uncertain, are shown with a selection of clear calls. Calls come from the whole dose curve; as a rule, active = well fitted inhibition curve with a large enough effect; inconclusive = small, poorly fitted or top-dose-only effect; inactive = flat fitted curve, though single readings scatter. A potency beside an inconclusive call is a rough fit, not a confirmed value.

Target: Microtubule-associated protein tau (Homo sapiens) (UniProt P10636)
Sequence of UniProt P10636 (P10636 whole entry, looked up): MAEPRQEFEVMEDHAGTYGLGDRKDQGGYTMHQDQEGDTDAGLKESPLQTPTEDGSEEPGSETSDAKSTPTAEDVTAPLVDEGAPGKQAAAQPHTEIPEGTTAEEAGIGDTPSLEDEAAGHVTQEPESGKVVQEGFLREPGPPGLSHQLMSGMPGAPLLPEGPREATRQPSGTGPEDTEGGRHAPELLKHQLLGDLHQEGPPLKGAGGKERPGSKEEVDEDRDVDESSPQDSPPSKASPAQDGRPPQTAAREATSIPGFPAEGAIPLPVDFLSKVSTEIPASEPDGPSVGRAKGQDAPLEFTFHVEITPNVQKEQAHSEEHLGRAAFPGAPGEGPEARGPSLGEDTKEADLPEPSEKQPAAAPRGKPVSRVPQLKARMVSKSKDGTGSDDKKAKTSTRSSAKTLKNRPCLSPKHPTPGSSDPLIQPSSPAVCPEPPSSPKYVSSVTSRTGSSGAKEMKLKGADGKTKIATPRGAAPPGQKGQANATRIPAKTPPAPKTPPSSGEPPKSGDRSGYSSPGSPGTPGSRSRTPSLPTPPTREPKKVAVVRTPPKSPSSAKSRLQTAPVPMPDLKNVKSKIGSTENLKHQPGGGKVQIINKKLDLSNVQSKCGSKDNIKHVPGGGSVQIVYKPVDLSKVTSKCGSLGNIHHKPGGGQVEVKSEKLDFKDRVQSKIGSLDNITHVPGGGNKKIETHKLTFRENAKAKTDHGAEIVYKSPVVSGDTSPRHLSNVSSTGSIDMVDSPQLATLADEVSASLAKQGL
Experiment: qHTS for Inhibitors of Tau Fibril Formation, Thioflavin T Binding; note: nearly all actives have a fitted effect of over 55% in size
Details: recombinant tau K18 P301L, heparin-induced fibrillization, ThT fluorescence; series mostly up to 57.4 µM
How it was run: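 Using a mix of unlabeled (15 uM) and Alexa 594-labeled (0.24 uM) tau K18 P301L, heparin-triggered fibrillization over 6 hr at 37 C was scored by ThT fluorescence.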
Potency is the fitted concentration of half-maximal effect; tags give direction and shape of the fitted curve.

| Compound | Potency |
| --- | --- |
| c1ccc2c(c1)CCN(c1ncnc3c1[nH]c1ccccc13)C2 | inconclusive: 15.8 µM [inhibitor, partial curve] |
| Fc1ccc(NCc2cccnc2)cc1F | inconclusive: 31.6 µM [inhibitor, single point] |
| O=C(Nc1nccs1)c1c(O)c2c([nH]c1=O)CCCC2 | inconclusive: 0.398 µM [inhibitor, full curve] |
| COc1ccc(/C=C/c2nnc(NC(=O)COc3ccc(C)cc3)s2)cc1 | inconclusive: 0.562 µM [inhibitor, full curve] |
| Nc1ccc(O)cc1C(=O)OCC(=O)c1ccc(C2CCCCC2)cc1 | inconclusive: 14.1 µM [inhibitor, partial curve] |
| COc1ccccc1NC(=O)Cn1c(=O)n(-c2ccc(C)cc2)c(=O)c2c1cnn2C | inactive |
| Cc1ccc(C(=O)c2cnc3ccccc3c2-c2ccccc2)cc1 | inconclusive: 31.6 µM [inhibitor, partial curve] |
| Cc1ccc(N2C(=O)CSC23C(=O)N(CC(=O)Nc2ccccc2F)c2ccccc23)cc1C (stereo not drawn) | inactive |
| Cc1[nH]n(C2=NCCS2)c(=O)c1N=Nc1cccc(C(F)(F)F)c1 | active: 12.6 µM |
| CCOc1cc(NC2CS(=O)(=O)CC2O)c(OCC)cc1NC(=O)c1ccccc1 (stereo not drawn) | inactive |
| Cc1nn(-c2ccc(Cl)cc2)c2sc(C(=O)N3CCN(c4ccccn4)CC3)cc12 | inconclusive: 39.8 µM [inhibitor, single point] |
| CN1C2CCC1/C(=C\c1ccc(F)cc1)C(=O)/C2=C/c1ccc(F)cc1 | inconclusive: 7.08 µM [inhibitor, partial curve] |
| Nn1c(SCC(=O)Nc2ccc3c(c2)OCO3)nnc1-c1cccc(Cl)c1 | inconclusive: 1.78 µM [inhibitor, full curve] |
| Cc1cc2[nH]ncc2cc1NC(=S)NC(=O)c1ccccc1 | inconclusive: 10 µM [inhibitor, partial curve] |
| Cc1ccc(S(=O)(=O)N2CCN(c3ccc([N+](=O)[O-])c(Sc4nncn4C)c3)CC2)cc1 | inconclusive: 20 µM [inhibitor, single point] |
| COc1ccc(N2CCN(CCCNC(=O)c3ccc4nc(N5CCCCC5)sc4c3)CC2)cc1 | inconclusive: 3.55 µM [inhibitor, partial curve, poor fit] |
| C/C(=C\C(=O)c1ccccc1)Nc1ccc(O)cc1 | inconclusive: 17.8 µM [inhibitor, partial curve] |
| Cc1ccc(/C=C/c2onc(C)c2S(=O)(=O)N2CCC(C(=O)N(CCC(C)C)Cc3ccco3)CC2)cc1 | inactive |
| COC(=O)c1[nH]c2cccc(Cl)c2c1NC(=O)CN(C)C1CCCCC1 | inactive |
| CCOC(=O)/C(=C/c1c[nH]c2ccccc12)NC(C)=O | inconclusive: 39.8 µM [inhibitor, single point] |
| Cc1ccccc1NCCNc1ccccc1C | inconclusive: 14.1 µM [inhibitor, partial curve] |
| COc1ccc2c(Sc3ccc(Cl)cc3)c(C(=O)N3CCCCC3)[nH]c2c1 | inconclusive: 31.6 µM [inhibitor, single point] |

| Compound | Potency |
| --- | --- |
| CCOc1ccc(/C=N/NC(=O)C(C)N(c2ccc(OC)cc2)S(C)(=O)=O)cc1OCC (stereo not drawn) | inactive |
| CN(Cc1ccco1)c1ccnc(-c2ccoc2)n1 | active: 22.4 µM |
| Cc1cc(N2CCOCC2)n2ncc(-c3ccccc3)c2n1 | inconclusive: 39.8 µM [inhibitor, single point] |
| Cc1ccc(/C(N)=N/OC(=O)c2ccc(Cl)cc2Cl)cc1 | inconclusive: 20 µM [inhibitor, single point] |
| Cc1ccc(C(C)C)c(OCC(=O)NN=C(CCl)CCl)c1 | inconclusive: 20 µM [inhibitor, partial curve, poor fit] |
| O=C(c1cc2cc([N+](=O)[O-])ccc2oc1=O)N1CCOCC1 | inconclusive: 11.2 µM [inhibitor, partial curve, poor fit] |
| O=C1/C(=C/c2ccncc2)Oc2cc(OS(=O)(=O)c3ccccc3)ccc21 | inconclusive: 20 µM [inhibitor, partial curve] |
| COc1ccc(S(=O)(=O)NCC2CCCN(C(=O)C=C(C)C)C2)cc1 (stereo not drawn) | inactive |
| c1ccc(OCc2nn3c(Cn4nnc5ccccc54)nnc3s2)cc1 | inactive |
| C=CCN=c1scc(-c2ccc(F)cc2)n1/N=C/c1ccccn1 | inconclusive: 15.8 µM [inhibitor, partial curve] |
| O=C(O)c1cccc(NC2=Nc3cccc4cccc2c34)c1 | inconclusive: 39.8 µM [inhibitor, partial curve] |
| NC(=S)N/N=C/c1ccccc1O | inactive |
| Cc1ccc(NC(=O)CCCn2c(=O)c3cccn3c3ccccc32)c(C)c1 | inactive |
| O=C(N/N=C/c1cccc([N+](=O)[O-])c1)c1ccc(COc2ccccc2-c2ccccc2)cc1 | inconclusive: 8.91 µM [inhibitor, partial curve, poor fit] |
| O=C(N/N=C/c1ccc([N+](=O)[O-])o1)c1ccccc1NS(=O)(=O)c1cccs1 | inconclusive: 15.8 µM [inhibitor, partial curve] |
| CCN1CCC2(CC1)N=C(c1ccc(F)cc1)C(=S)N2C(=O)c1ccc(C)cc1 | inconclusive: 39.8 µM [inhibitor, single point] |
| CC(C)OCCCn1c(NN)nc2ccccc2c1=O | inconclusive: 31.6 µM [inhibitor, partial curve] |
| COC(=O)c1ccc(C(/C=C/[C@@H](C)C(=O)NCCc2c[nH]c3ccccc23)NC(=O)OCc2ccccc2)cc1 (stereo partly drawn) | inconclusive: 17.8 µM [inhibitor, partial curve] |
| Cc1cc(C)c2oc(C(=O)Nc3ccc(S(=O)(=O)N4CCCC(C)C4)cc3)cc(=O)c2c1 (stereo not drawn) | inconclusive: 14.1 µM [inhibitor, partial curve] |
| N#C/C(=C\c1ccc(N2CCOCC2)o1)C(=O)NC1CCCCC1 | inconclusive: 11.2 µM [inhibitor, partial curve] |
| COc1cc(-c2cc(C(=O)Nc3ccc(O)cc3)c3ccccc3n2)cc(OC)c1OC | inconclusive: 39.8 µM [inhibitor, partial curve] |
